Over roughly 33,000 sequences, “E-score (-0.5 to 0.5)” has its median near -0.036; the highest 2% begin near 0.37. Some of the results follow.
Biological target: T1, Yer064c (UniProt P40041)
T1 sequence: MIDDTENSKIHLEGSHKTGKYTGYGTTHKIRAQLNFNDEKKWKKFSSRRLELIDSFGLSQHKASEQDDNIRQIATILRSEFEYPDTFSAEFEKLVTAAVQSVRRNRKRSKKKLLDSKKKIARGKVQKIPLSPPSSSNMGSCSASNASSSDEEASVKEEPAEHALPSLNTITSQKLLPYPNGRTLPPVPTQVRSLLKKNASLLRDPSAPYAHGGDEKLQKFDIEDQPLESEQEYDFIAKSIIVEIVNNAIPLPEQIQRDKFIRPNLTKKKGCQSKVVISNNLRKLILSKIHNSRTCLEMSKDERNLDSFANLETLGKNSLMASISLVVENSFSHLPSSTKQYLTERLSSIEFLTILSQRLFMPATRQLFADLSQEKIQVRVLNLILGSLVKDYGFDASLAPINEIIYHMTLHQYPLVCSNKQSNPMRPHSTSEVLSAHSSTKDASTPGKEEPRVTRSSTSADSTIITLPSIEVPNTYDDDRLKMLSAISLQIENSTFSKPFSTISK
Experiment: PBM E-score (8-mer binding enrichment) (E-score (-0.5 to 0.5)); higher = stronger / more preferred TF binding; most listed sequences are background and not binding sites
Settings: protein concentration: 200 nM; construct: GST-full length
How it was run: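 Each ungapped eight-base word and its reverse complement, pooled, received an E-score from the Universal PBM Analysis Suite. Underlying scans, normalised with masliner, recorded fluorescent anti-GST bound to GST-tagged yeast transcription factors. These were applied at about 100-200 nM to universal all-10-mer Agilent arrays double-stranded by primer extension.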

Point of comparison: ACGAGACA, “PBM E-score” value 0.12. Against it:
- CCAGGTGC — lower, -0.14
- AGGTCCCA — lower, -0.136
- AGTAGGTC — lower, -0.0811
- CGGGGGAA — lower, -0.311
- AGTAGGAA — higher, 0.18
- CAGGTCCG — lower, -0.074
- ACCTAGAC — lower, -0.184
- CCGGTCCA — lower, -0.268
- AGCTTAGG — lower, -0.118
- AGATCACG — lower, 0.0914
- GACAGTTA — lower, -0.103
- AGAACTGC — lower, -0.106
- TCCGCGAA — lower, 0.115
- ATCACGAA — lower, 0.106
- TCACTAAA — higher, 0.133
- CGACTAAA — higher, 0.41
- AGCACAGG — lower, -0.106
- AAATAAAG — lower, -0.0152
- AAGACAGG — lower, -0.0868
- ACCTCGAT — lower, 0.0441
- CTTTATGA — higher, 0.3
- GAGAGTCC — higher, 0.256
- AAAAGCGG — lower, -0.0721
- AATTGTAG — higher, 0.13
- CCGCGAAG — lower, -0.2
- CGACGCCA — lower, -0.274
- AGTGTCCA — lower, -0.132
- GCCGAATA — lower, 0.004
- GCACTTAA — higher, 0.124
- AAACGGAT — lower, -0.0575
- ACCTGACT — higher, 0.44
- CTTTCAAA — lower, 0.0256
- CCGTCTAC — lower, -0.171
- ATTGCTCG — lower, -0.0255
- CCGAGGCA — lower, -0.00325
- CACGCCTC — lower, -0.0802
- AGGACCCA — lower, -0.0632
- ACGCAGTC — higher, 0.264
- GGCTACGA — lower, -0.101
- CCATGCGC — lower, -0.0638
- AATTGGAC — lower, 0.0724
- AATGTACA — lower, -0.101
- CCTAGTAA — lower, 0.017
- CATCATCC — lower, 0.0788
- GGTGCACC — lower, -0.277
- CAGAATCA — higher, 0.349
- AACTATAG — lower, -0.0531
- CTCGACCA — lower, -0.14
- CTTTCTGC — lower, -0.1
- GTTCTTAA — lower, 0.0325
- CATCGGTA — lower, 0.0395
- CTTAATCC — lower, 0.114
- GCAGTCCC — lower, -0.00282
- GGGGTGAA — lower, 0.0547
- ACGTACAT — lower, -0.0108
- ATTGGTGG — lower, -0.0867
- GTCATAGA — higher, 0.227
- CCGTGAAG — lower, -0.158
- AATGATCA — higher, 0.227
- GCATTCGC — lower, -0.3
- TGAGTCAA — higher, 0.489
- AGCCAGCA — lower, -0.112
- CTCGTGTC — lower, -0.101
- CTACTTTA — lower, 0.11
- AACGGTAC — lower, -0.0255
- GCCTCAGC — lower, -0.208
- AATTATGC — lower, -0.201
- CCGCCCGG — lower, -0.102
- GAGCAGTA — lower, 0.0759
- CATCTATA — lower, 0.0896
- CTCTGAAA — lower, -0.0288
- ATTAAGCC — higher, 0.134
- AGCGACCA — lower, -0.173
- ACTAGGAA — higher, 0.188
- CGTTAGTC — higher, 0.45
- ATCTCCCG — lower, 0.0174
- AATTAGGT — lower, 0.101
- CGGACGTA — lower, -0.252
- ATCGAATC — higher, 0.193
- GCAAATGC — lower, -0.176
- CCGCCGAC — lower, -0.0848
- ATGGCTAA — higher, 0.363
- ATAGCTAA — lower, -0.0482
- AAACGCGG — lower, -0.199
- GTTCACGA — lower, 0.0352
- GGATGTAC — lower, -0.226
- AAGATTCT — lower, 0.0986
- CAGTTCTA — lower, 0.0455
- CTCTACAG — lower, 0.0458
- CATCCTCA — lower, 0.0944
- AATTTAAG — lower, 0.119
- AATTCCAG — lower, -0.229
- CAGTGATA — lower, -0.0553
- AAAAGCTT — lower, -0.12
- CAGTACAA — lower, 0.0589
- ACATGTCC — lower, -0.0827
- AATCTCAC — higher, 0.172
- GTACGGGA — lower, -0.292
- ATTTCAAG — lower, 0.0642
- CCATTGGG — lower, -0.156
- GGCAGTAC — lower, -0.0278
- GCGCATCC — lower, -0.153
- GTATACAA — lower, 0.00051
- GCCGGTAC — lower, -0.137
- AAGAGAGA — lower, -0.0328
- AATGGGTG — lower, -0.0447
- ATCTATGG — lower, -0.026
- GGGGAGTA — lower, -0.0831
- ATACTTGG — lower, -0.0981
- GTGTCAAA — higher, 0.17
- AAAGGCCG — lower, -0.299
- AAAACCAA — lower, 0.0692
- ATTCACTC — lower, 0.0742
- CATTAACC — higher, 0.165
- ATCAGTCG — higher, 0.296
- ATGAATTA — lower, 0.0557
- CCTACGTC — lower, -0.289
- ACTGTTCT — lower, 0.0772
- CATTCCCG — lower, -0.0184
- AGCGAAAT — lower, -0.103
- GCGAAAGA — lower, -0.0175
- GAATACAA — lower, 0.0429
- CGTTGCGC — lower, -0.22
- GACAAAAA — lower, 0.09
- CGAAGGTC — lower, -0.155
- ATCGGGGG — lower, -0.0226
- ATTGGCTC — lower, 0.101
- ACGCCCTC — lower, -0.228
- GACGACCA — lower, -0.102
- AATCAGCA — higher, 0.362
- ACAACATA — lower, -0.131
- AGGAAACA — lower, -0.0568
- ACCAACGC — lower, -0.119
- AATTCGCG — lower, -0.0781
- AGGATAAA — lower, -0.0251
- ATTGTTAG — lower, 0.115
- GTATTCTA — lower, -0.077
- CTGATGGC — lower, -0.0841
- TAGCTCGA — lower, -0.203
- AATTTGTA — higher, 0.121
- CCTTCTGC — lower, -0.292
- ACCTGCGA — lower, -0.0233
- ATAGTTCC — lower, -0.139
- AACTAACT — higher, 0.133
- CCGGCCTC — lower, -0.305
- CATCTCGA — lower, -0.108
- GCCGGTAA — lower, 0.0549
- TCAAAAGA — higher, 0.199
- CAAATTCG — lower, 0.00421
- GCAGAACC — lower, -0.118
- CCATCACG — lower, 0.0985
- AGACTTGG — lower, -0.0468
- ACACGACC — lower, -0.0158
- GTAGTGCA — lower, 0.0353
- CTGTCAAC — lower, -0.106
- GAACTGTA — higher, 0.148
- CTGCTCAC — lower, -0.143
- CAAATAGG — lower, -0.0801
- GGCATCAA — lower, -0.18
- CAGTTTAG — lower, 0.00262
- CGGGATGA — higher, 0.166
- CAAACCTC — lower, -0.233
- CGTCCTGA — lower, -0.0984
- CCCTCGTC — lower, -0.268
- CTCAAAAC — lower, 0.071
- GAATCTTA — higher, 0.305
- ATAAGTGC — lower, -0.158
- CAAAACCA — lower, 0.0659
- GTCTCAAA — higher, 0.175
- AAAACCTG — lower, -0.0382
- GATTCACA — higher, 0.375

Reference: the supplement of paper PMC3334620
